Test results reported in article PMC4336329 (PLoS ONE, 2015).
Among all 310,000 compounds or so, about 14,000 (4.5%) showed an effect of 50% or more. The effect is printed as a negative number. The list shows a part of the results.

Molecular target: human ether-à-go-go-related gene (hERG) potassium channel (human, UniProt Q12809)
Assay: primary screen, population patch clamp on CHO cells stably expressing hERG
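Note: peak tail current of the secondary pulse compared with the same well before compound.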

human ether-à-go-go-related gene (hERG) potassium channel, sequence (Q12809 whole entry, looked up): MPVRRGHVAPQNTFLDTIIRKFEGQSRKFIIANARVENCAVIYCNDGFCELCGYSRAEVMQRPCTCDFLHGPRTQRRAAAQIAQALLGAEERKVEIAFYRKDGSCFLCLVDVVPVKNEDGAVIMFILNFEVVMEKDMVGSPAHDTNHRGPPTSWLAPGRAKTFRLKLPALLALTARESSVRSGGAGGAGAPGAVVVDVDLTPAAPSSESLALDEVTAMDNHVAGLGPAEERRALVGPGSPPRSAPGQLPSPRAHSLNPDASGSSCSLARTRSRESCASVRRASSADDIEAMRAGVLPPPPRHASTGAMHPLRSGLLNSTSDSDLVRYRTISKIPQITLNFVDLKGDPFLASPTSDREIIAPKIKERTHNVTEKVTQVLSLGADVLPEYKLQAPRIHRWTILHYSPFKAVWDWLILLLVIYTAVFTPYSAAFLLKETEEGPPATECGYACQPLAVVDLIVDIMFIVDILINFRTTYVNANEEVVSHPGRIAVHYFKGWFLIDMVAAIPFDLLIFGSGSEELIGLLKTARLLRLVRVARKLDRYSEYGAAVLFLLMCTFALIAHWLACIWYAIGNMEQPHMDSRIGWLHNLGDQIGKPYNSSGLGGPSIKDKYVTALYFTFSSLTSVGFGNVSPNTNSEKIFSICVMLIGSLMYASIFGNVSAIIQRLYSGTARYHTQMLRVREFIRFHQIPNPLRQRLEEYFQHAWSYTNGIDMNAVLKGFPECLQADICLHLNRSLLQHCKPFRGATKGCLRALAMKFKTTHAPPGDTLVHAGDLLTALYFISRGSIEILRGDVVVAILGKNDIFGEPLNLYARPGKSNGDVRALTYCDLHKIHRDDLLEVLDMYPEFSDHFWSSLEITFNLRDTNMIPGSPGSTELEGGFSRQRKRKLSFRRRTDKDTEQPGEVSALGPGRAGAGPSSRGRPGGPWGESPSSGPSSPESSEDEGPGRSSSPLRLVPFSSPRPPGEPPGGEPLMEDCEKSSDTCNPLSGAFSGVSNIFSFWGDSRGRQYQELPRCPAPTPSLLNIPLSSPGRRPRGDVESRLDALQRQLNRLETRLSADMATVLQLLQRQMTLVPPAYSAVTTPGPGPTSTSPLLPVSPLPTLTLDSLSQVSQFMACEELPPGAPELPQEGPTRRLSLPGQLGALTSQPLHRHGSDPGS

Row | SMILES | hERG current change (%, negative = inhibition) at 10uM
1 | CC1Cc2ccccc2N1C(=O)c1cc2cccnc2n(C)c1=O (centres unmarked) | 10.3%
2 | COc1ccccc1CNC(=O)c1cc(C(=O)CC(C)C)c[nH]1 | -4.79%
3 | O=C(N/N=C1/CCSC1)c1cccc([N+](=O)[O-])c1 | -5.26%
4 | O=C(OCc1nc2ccccc2c(=O)[nH]1)c1cccs1 | 12.9%
5 | CN(C)c1cccc(C(=O)N2CCC(n3nccc3NC(=O)C3CCOC3)CC2)c1 (centres unmarked) | 3.5%
6 | CCOC(=O)c1cc(-c2ccccc2)n(CC2CC(c3ccc(OC)cc3)=NO2)n1 (centres unmarked) | -36.2%
7 | COc1ccc(C(=O)NCCOc2cccc(OC)c2)cc1 | 7.75%
8 | Cn1nc(-c2ccccc2)cc1NC(=O)Nc1ccc(C(C)(C)C)cc1 | 6.56%
9 | O=C(Nc1ccnn1C1CCN(Cc2cccc(OCCO)c2)CC1)C1CC1 | 0.219%
10 | Cc1noc(C)c1COc1ccc(C(=O)N2CCCC(C(N)=O)C2)cc1 (centres unmarked) | -7.3%
11 | Cc1cccc(OCC(=O)N/N=C\C=C\c2ccc3c(c2)OCO3)c1C | 15.9%
12 | CCn1cc(/C=C(\NC(=O)c2ccccc2OC)C(=O)NCCCN2CCOCC2)c2ccccc21 | -7.61%
13 | CC(C)CNC(=O)c1ccccc1N(Cc1ccccc1)S(C)(=O)=O | 8.39%
14 | CCOc1cc(CC(=O)N[C@@H](CC(C)C)c2ccccc2N2CCCCC2)ccc1C(=O)O | 13.9%
15 | COc1ccc(/C(C)=N/Nc2cccc(C(=O)O)c2)cc1OC | 4.26%
16 | CCOc1ccc(OCCN2CCCCC2)cc1.O=C(O)C(=O)O | -21.7%
17 | CCOc1ccc(OCCC(=O)NNC(=O)c2cc(C)oc2C)cc1 | 6.75%
18 | COC(=O)C1=C(C)N(CCc2cc(OC)c(OC)c(OC)c2)C(=O)N[C@H]1c1cccs1 | 21.3%
19 | COc1ccc(S(=O)(=O)N2CCCCCC2)cc1C(=O)N(C)CC(=O)Nc1cc(C)ccc1C | -1.65%

Row | SMILES | hERG current change (%, negative = inhibition) at 10uM
20 | CC(=O)Nc1nnc(COc2ccccc2)s1 | 2.61%
21 | CCc1cc(=O)[nH]c(SC/C=C/c2ccccc2)n1 | 9.1%
22 | Cc1ccccc1Nc1nc(-c2ccccc2)c(C(=O)Nc2cccnc2)s1 | -4.94%
23 | O=C(Nc1ncc(Cc2cccc(C(F)(F)F)c2)s1)c1ccc(-c2cccc([N+](=O)[O-])c2)o1 | -0.341%
24 | O=C(COc1ccc2ccc(=O)oc2c1)Nc1ccc(N2CCCCC2)cc1 | -2.46%
25 | O=C(COC(=O)c1ccc(Cl)c(S(=O)(=O)N2CCN(c3ccc(F)cc3)CC2)c1)Nc1cccc(Cl)c1 | 14.4%
26 | Clc1ccccc1-c1nnc2sc(C3COc4ccccc4O3)nn12 (centres unmarked) | -15.3%
27 | O=[n+]1c2c(n([O-])c3c1CCCC3)CCCCC2 | 0.534%
28 | COc1ccc(NC(=O)C2CCN(S(=O)(=O)c3ccc(N4CCCC4=O)cc3)CC2)c(OC)c1 | -8.46%
29 | CC1CCN(Cc2nnnn2CCCC(=O)NC(c2ccccn2)C(F)(F)F)CC1 (centres unmarked) | 1.39%
30 | O=C(CCS(=O)(=O)c1ccc(Br)cc1)NC1CCCCCC1 | 3.28%
31 | Cc1cccc(C(=O)N2CCN(c3ccc(C(F)(F)F)cn3)CC2)c1C | -19.6%
32 | COc1ccccc1/C=N/NC(=O)CCSc1ccccc1 | 18.3%
33 | C/C(=N\NC(=O)OC(C)(C)C)c1ccccc1Br | 15.7%
34 | Cc1cc(C(=O)CN2C(=O)NC(CC(C)C)C2=O)c(C)n1-c1ccccc1F (centres unmarked) | -8.7%
35 | O=C(O)c1ccc(NC2=C(Cl)C(=O)c3ccccc3C2=O)cc1 | 14.7%
36 | Cc1ccc(NC(=O)COC(=O)Cc2ccsc2)cc1S(=O)(=O)N1CCOCC1 | -28.6%
37 | CC(C)(C)C(=O)OCOC(=O)[C@@H]1N2C(=O)[C@@H](N=CN3CCCCCC3)[C@H]2SC1(C)C.Cl | -0.135%
38 | Cc1ccc(-c2cc3nc4c(c(=O)n3[nH]2)CCCC4)cc1 | 8.8%

Row | SMILES | hERG current change (%, negative = inhibition) at 10uM
39 | CC1CCc2c(C(=O)Nc3ccc(N4CCOCC4)cc3)csc2C1 (centres unmarked) | 16.4%
40 | O=C(/C=C/c1ccco1)OCn1nnc2ccccc2c1=O | -6.79%
41 | Cc1cc(C)cc(NC(=O)CN2C(=O)NC(C)(c3ccccc3)C2=O)c1 (centres unmarked) | 2.44%
42 | CC(=O)NN1C(=O)c2ccc3c4c(ccc(c24)C1=O)C(=O)N(NC(C)=O)C3=O | 20.3%
43 | Brc1cccc(-c2nnc3sc(CN4CCCCC4)cn23)c1 | -11%
44 | COC(=O)c1cc(NC(=O)COC(=O)C2CCC2)cc(C(=O)OC)c1 | 11.3%
45 | O=C(CC1C(=O)NCCN1Cc1cccc(F)c1)NCCCCCN1CCOCC1 (centres unmarked) | 5.36%
46 | O=C(O)C(=O)O.O=C1CC(Cc2ccccc2)C(=O)N1CCCn1ccnc1 (centres unmarked) | -9.86%
47 | Cn1cnc(S(=O)(=O)Nc2ccc(OC(F)(F)F)cc2)c1 | 6.24%
48 | CCSC1=C(C#N)C(c2cccc(OC)c2)CC(=O)N1 (centres unmarked) | -2.66%
49 | Cc1cc([N+](=O)[O-])ccc1N(C)C | 4%
50 | CCCCN(C(=O)CCCc1nc2ccccc2c(=O)[nH]1)c1c(N)n(CCCC)c(=O)[nH]c1=O | 25.4%
51 | N/C(=N\OC(=O)Cc1ccccc1)c1cccnc1 | -12.9%
52 | On1ccccc1=S | 9.55%
53 | CCC(C(=O)NCCCN(CC)Cc1ccccc1)n1nc(C)c2sc3ccccc3c2c1=O (centres unmarked) | -68.1%
54 | CCN(CC)S(=O)(=O)c1ccc(C(=O)NCCSc2c[nH]c3ccccc23)cc1 | -19.6%
55 | CCOC(=O)c1ccc(NC(=S)NC2CCCC2)cc1 | -7.86%
56 | CCOC(=O)C1CSC(CC(=O)Nc2ccc(OC(F)(F)F)cc2)C(=O)N1 (centres unmarked) | -56.3%
